# The supplement of paper PMC8728848
# The other results are listed elsewhere or left out.
# Assays:
# Experiment in all cases: glycan array binding signal (z-score within array); higher = stronger binding
# Conditions in all cases: glycan notation: IUPAC condensed, linker removed
# Gal(b1-4)Glc = target: Gal(b1-4)Glc
# In short: (§1)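 The binding signal is a Z-score computed within each array. Data were drawn from 3228 arrays in the Consortium for Functional Glycomics database, restricted to those with a known protein sequence. Scores were averaged over arrays of the same protein sequence at different concentrations or buffers, and over linkers, and negative values can be taken as non-binding.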
# Gal(b1-4)Glc6S = target: Gal(b1-4)Glc6S
# In short: as §1
# Gal(b1-4)GlcNAc = target: Gal(b1-4)GlcNAc
# In short: as §1
# [1] = target: Gal(b1-4)GlcNAc(a1-6)Gal(b1-4)GlcNAc
# In short: as §1
# Gal(b1-4)GlcNAc(b1-2)Man = target: Gal(b1-4)GlcNAc(b1-2)Man
# In short: as §1
# [2] = target: Gal(b1-4)GlcNAc(b1-2)Man(a1-3)Man(b1-4)GlcNAc(b1-4)GlcNAc
# In short: as §1
# [3] = target: Gal(b1-4)GlcNAc(b1-2)Man(a1-3)[Gal(b1-4)GlcNAc(b1-2)Man(a1-6)]Man(b1-4)GlcNAc(b1-4)GlcNAc
# In short: as §1
# [4] = target: Gal(b1-4)GlcNAc(b1-2)Man(a1-3)[Gal(b1-4)GlcNAc(b1-2)Man(a1-6)]Man(b1-4)GlcNAc(b1-4)[Fuc(a1-6)]GlcNAc
# In short: as §1
# [5] = target: Gal(b1-4)GlcNAc(b1-2)Man(a1-3)[Gal(b1-4)GlcNAc(b1-2)Man(a1-6)][Gal(b1-4)GlcNAc(b1-4)]Man(b1-4)GlcNAc(b1-4)[Fuc(a1-6)]GlcNAc
# In short: as §1
# [6] = target: Gal(b1-4)GlcNAc(b1-2)Man(a1-3)[Gal(b1-4)GlcNAc(b1-2)Man(a1-6)][GlcNAc(b1-4)]Man(b1-4)GlcNAc(b1-4)[Fuc(a1-6)]GlcNAc
# In short: as §1
# [7] = target: Gal(b1-4)GlcNAc(b1-2)Man(a1-3)[GlcNAc(b1-2)Man(a1-6)]Man(b1-4)GlcNAc(b1-4)GlcNAc
# In short: as §1
# [8] = target: Gal(b1-4)GlcNAc(b1-2)Man(a1-3)[GlcNAc(b1-4)][Gal(b1-4)GlcNAc(b1-2)Man(a1-6)]Man(b1-4)GlcNAc(b1-4)GlcNAc
# In short: as §1
# [9] = target: Gal(b1-4)GlcNAc(b1-2)Man(a1-3)[Man(a1-6)]Man(b1-4)GlcNAc(b1-4)GlcNAc
# In short: as §1
# [10] = target: Gal(b1-4)GlcNAc(b1-2)Man(a1-6)Man(b1-4)GlcNAc(b1-4)GlcNAc
# In short: as §1
# [11] = target: Gal(b1-4)GlcNAc(b1-2)Man(a1-6)[GlcNAc(b1-2)Man(a1-3)]Man(b1-4)GlcNAc(b1-4)GlcNAc
# In short: as §1
# [12] = target: Gal(b1-4)GlcNAc(b1-2)Man(a1-6)[Man(a1-3)]Man(b1-4)GlcNAc(b1-4)GlcNAc
# In short: as §1
# [13] = target: Gal(b1-4)GlcNAc(b1-2)[Gal(b1-4)GlcNAc(b1-4)]Man(a1-3)[Gal(b1-4)GlcNAc(b1-2)Man(a1-6)]Man(b1-4)GlcNAc(b1-4)GlcNAc
# In short: as §1
# [14] = target: Gal(b1-4)GlcNAc(b1-2)[Gal(b1-4)GlcNAc(b1-4)]Man(a1-3)[Gal(b1-4)GlcNAc(b1-2)[Gal(b1-4)GlcNAc(b1-6)]Man(a1-6)]Man(b1-4)GlcNAc(b1-4)GlcNAc
# In short: as §1
# [15] = target: Gal(b1-4)GlcNAc(b1-2)[Gal(b1-4)GlcNAc(b1-4)]Man(a1-3)[GlcNAc(b1-4)][Gal(b1-4)GlcNAc(b1-2)Man(a1-6)]Man(b1-4)GlcNAc(b1-4)GlcNAc
# In short: as §1
# [16] = target: Gal(b1-4)GlcNAc(b1-2)[Gal(b1-4)GlcNAc(b1-4)]Man(a1-3)[GlcNAc(b1-4)][Gal(b1-4)GlcNAc(b1-2)[Gal(b1-4)GlcNAc(b1-6)]Man(a1-6)]Man(b1-4)GlcNAc(b1-4)GlcNAc
# In short: as §1
# [17] = target: Gal(b1-4)GlcNAc(b1-2)[Gal(b1-4)GlcNAc(b1-6)]Man(a1-6)[Gal(b1-4)GlcNAc(b1-2)Man(a1-3)]Man(b1-4)GlcNAc(b1-4)GlcNAc
# In short: as §1
# [18] = target: Gal(b1-4)GlcNAc(b1-2)[Gal(b1-4)GlcNAc(b1-6)]Man(a1-6)[Gal(b1-4)GlcNAc(b1-2)Man(a1-3)]Man(b1-4)GlcNAc(b1-4)[Fuc(a1-6)]GlcNAc
# In short: as §1
# [19] = target: Gal(b1-4)GlcNAc(b1-2)[Gal(b1-4)GlcNAc(b1-6)]Man(a1-6)[GlcNAc(b1-4)][Gal(b1-4)GlcNAc(b1-2)Man(a1-3)]Man(b1-4)GlcNAc(b1-4)GlcNAc
# In short: as §1
# [20] = target: Gal(b1-4)GlcNAc(b1-2)[Gal(b1-4)GlcNAc(b1-6)]Man(a1-6)[GlcNAc(b1-4)][Gal(b1-4)GlcNAc(b1-2)[Gal(b1-4)GlcNAc(b1-4)]Man(a1-3)]Man(b1-4)GlcNAc(b1-4)[Fuc(a1-6)]GlcNAc
# In short: as §1
# [21] = target: Gal(b1-4)GlcNAc(b1-3)Gal(b1-3)GalNAc
# In short: as §1
# [22] = target: Gal(b1-4)GlcNAc(b1-3)Gal(b1-3)GlcNAc
# In short: as §1
# [23] = target: Gal(b1-4)GlcNAc(b1-3)Gal(b1-4)Glc
# In short: as §1
# [24] = target: Gal(b1-4)GlcNAc(b1-3)Gal(b1-4)GlcNAc
# In short: as §1
# [25] = target: Gal(b1-4)GlcNAc(b1-3)Gal(b1-4)GlcNAc(b1-2)Man(a1-3)[Gal(b1-4)GlcNAc(b1-3)Gal(b1-4)GlcNAc(b1-2)Man(a1-6)]Man(b1-4)GlcNAc(b1-4)GlcNAc
# In short: as §1
# [26] = target: Gal(b1-4)GlcNAc(b1-3)Gal(b1-4)GlcNAc(b1-2)Man(a1-3)[Gal(b1-4)GlcNAc(b1-3)Gal(b1-4)GlcNAc(b1-2)Man(a1-6)]Man(b1-4)GlcNAc(b1-4)[Fuc(a1-6)]GlcNAc
# In short: as §1
# [27] = target: Gal(b1-4)GlcNAc(b1-3)Gal(b1-4)GlcNAc(b1-2)[Gal(b1-4)GlcNAc(b1-3)Gal(b1-4)GlcNAc(b1-6)]Man(a1-6)[Gal(b1-4)GlcNAc(b1-3)Gal(b1-4)GlcNAc(b1-2)Man(a1-3)]Man(b1-4)GlcNAc(b1-4)GlcNAc
# In short: as §1
# [28] = target: Gal(b1-4)GlcNAc(b1-3)Gal(b1-4)GlcNAc(b1-2)[Gal(b1-4)GlcNAc(b1-3)Gal(b1-4)GlcNAc(b1-6)]Man(a1-6)[Gal(b1-4)GlcNAc(b1-3)Gal(b1-4)GlcNAc(b1-2)Man(a1-3)]Man(b1-4)GlcNAc(b1-4)[Fuc(a1-6)]GlcNAc
# In short: as §1
# [29] = target: Gal(b1-4)GlcNAc(b1-3)Gal(b1-4)GlcNAc(b1-3)Gal(b1-4)GlcNAc
# In short: as §1
# [30] = target: Gal(b1-4)GlcNAc(b1-3)Gal(b1-4)GlcNAc(b1-3)Gal(b1-4)GlcNAc(b1-2)Man(a1-3)[Gal(b1-4)GlcNAc(b1-3)Gal(b1-4)GlcNAc(b1-3)Gal(b1-4)GlcNAc(b1-2)Man(a1-6)]Man(b1-4)GlcNAc(b1-4)GlcNAc
# In short: as §1
# [31] = target: Gal(b1-4)GlcNAc(b1-3)Gal(b1-4)GlcNAc(b1-3)Gal(b1-4)GlcNAc(b1-2)Man(a1-3)[Gal(b1-4)GlcNAc(b1-3)Gal(b1-4)GlcNAc(b1-3)Gal(b1-4)GlcNAc(b1-2)Man(a1-6)]Man(b1-4)GlcNAc(b1-4)[Fuc(a1-6)]GlcNAc
# In short: as §1
# [32] = target: Gal(b1-4)GlcNAc(b1-3)Gal(b1-4)GlcNAc(b1-3)Gal(b1-4)GlcNAc(b1-2)[Gal(b1-4)GlcNAc(b1-3)Gal(b1-4)GlcNAc(b1-3)Gal(b1-4)GlcNAc(b1-6)]Man(a1-6)[Gal(b1-4)GlcNAc(b1-3)Gal(b1-4)GlcNAc(b1-3)Gal(b1-4)GlcNAc(b1-2)Man(a1-3)]Man(b1-4)GlcNAc(b1-4)[Fuc(a1-6)]GlcNAc
# In short: as §1
# [33] = target: Gal(b1-4)GlcNAc(b1-3)Gal(b1-4)GlcNAc(b1-3)Gal(b1-4)GlcNAc(b1-3)Gal(b1-4)GlcNAc(b1-2)Man(a1-3)[Gal(b1-4)GlcNAc(b1-3)Gal(b1-4)GlcNAc(b1-3)Gal(b1-4)GlcNAc(b1-3)Gal(b1-4)GlcNAc(b1-2)Man(a1-6)]Man(b1-4)GlcNAc(b1-4)GlcNAc
# In short: as §1
binder,measurement,setting,value
Si Bti9 1b-HA (Solanum lycopersicum) (protein) MFESRPRSVLSLGVFVILVYLSSVPLPVNSQCNRGCDLALASFYVWRGSNLTLISEMFSTSIADIVSYNNRDNIPNQDSVIAGTRINIPFRCDCLNDGEVLGHAFPYRVKSGDTYDLVARNYSDLTTAQWMMKFNSYPENNIPNTVNLSVVVNCSCGNSDVSKDFGLFVTYPVRAEDNLTSVASAANVSEDIIRRYNPAAVSILDIGQGIIYIPGRDRNGNFPPLPTSTDGLSGGAKAPLFFNPAFLYKVVELKLAGRSRTSGYPYDVPDYAGYPYDVPDYALEVLFQ,glycan array binding signal (z-score),Gal(b1-4)Glc,-0.127
same,glycan array binding signal (z-score),Gal(b1-4)Glc6S,0.274
same,glycan array binding signal (z-score),Gal(b1-4)GlcNAc,-0.203
same,glycan array binding signal (z-score),[1],-0.607
same,glycan array binding signal (z-score),Gal(b1-4)GlcNAc(b1-2)Man,0.344
same,glycan array binding signal (z-score),[2],0.174
same,glycan array binding signal (z-score),[3],-0.288
same,glycan array binding signal (z-score),[4],-0.064
same,glycan array binding signal (z-score),[5],-0.382
same,glycan array binding signal (z-score),[6],-0.589
same,glycan array binding signal (z-score),[7],-0.076
same,glycan array binding signal (z-score),[8],-0.173
same,glycan array binding signal (z-score),[9],-0.152
same,glycan array binding signal (z-score),[10],-0.057
same,glycan array binding signal (z-score),[11],-0.058
same,glycan array binding signal (z-score),[12],-0.322
same,glycan array binding signal (z-score),[13],-0.324
same,glycan array binding signal (z-score),[14],-0.538
same,glycan array binding signal (z-score),[15],-0.317
same,glycan array binding signal (z-score),[16],-0.345
same,glycan array binding signal (z-score),[17],-0.425
same,glycan array binding signal (z-score),[18],-0.297
same,glycan array binding signal (z-score),[19],-0.363
same,glycan array binding signal (z-score),[20],-0.334
same,glycan array binding signal (z-score),[21],-0.16
same,glycan array binding signal (z-score),[22],-0.442
same,glycan array binding signal (z-score),[23],-0.183
same,glycan array binding signal (z-score),[24],-0.346
same,glycan array binding signal (z-score),[25],3.44
same,glycan array binding signal (z-score),[26],-0.143
same,glycan array binding signal (z-score),[27],2.69
same,glycan array binding signal (z-score),[28],-0.1
same,glycan array binding signal (z-score),[29],-0.222
same,glycan array binding signal (z-score),[30],1.66
same,glycan array binding signal (z-score),[31],0.042
same,glycan array binding signal (z-score),[32],0.132
same,glycan array binding signal (z-score),[33],0.03
